pEC50: −log10 of the molar value. Active and inactive are the calls of the source. The calls are words filed in the database; no cut-off is given here.

In general, pEC50 refers to the EC50 on a negative log10 scale, so that one unit is a factor of ten. High values mean a low EC50, low ones a high EC50.

The test system of the first assay is Influenza A virus. Particulars: H1N1/A/WSN/33, MDCK, 48 h.
In turn, `COC(=O)[C@@H]1Cc2cc(O)c(O)cc2[C@H](Cc2ccc(O)c(O)c2)N1C(=O)c1ccccc1` showed a negative-log EC50 (pEC50) of 5.28. Same read-out and setting: then `COC(=O)[C@@H]1Cc2cc(O)c(O)cc2[C@H](Cc2ccc(O)c(O)c2)N1C(=O)c1ccc2ccccc2c1`, with 5.54; and `COC(=O)[C@@H]1Cc2cc(O)c(O)cc2[C@H](Cc2ccc(O)c(O)c2)N1C(=O)c1cccc([N+](=O)[O-])c1`, with 4.71; and `COC(=O)COC(=O)[C@@H]1Cc2cc(O)c(O)cc2[C@H](Cc2ccc(O)c(O)c2)N1C(=O)c1ccccc1Cl`, with 5.54.

`O=C(Nc1cccnc1)[C@@H]1Cc2cc(O)c(O)cc2[C@H](Cc2ccc(O)c(O)c2)N1C(=O)c1ccccc1Cl` showed a negative logarithm of the EC50 (pEC50) below 4.70. On the same count and under the same terms, then `COC(=O)[C@@H]1Cc2cc(O)c(O)cc2[C@H](Cc2ccc(O)c(O)c2)N1C(=O)c1ccc(Br)cc1`, with 5.40; and `CCCOC(=O)[C@@H]1Cc2cc(O)c(O)cc2[C@H](Cc2ccc(O)c(O)c2)N1C(=O)c1ccccc1Cl`, with 6.06; and `CCCCOC(=O)[C@@H]1Cc2cc(O)c(O)cc2[C@H](Cc2ccc(O)c(O)c2)N1C(=O)c1ccccc1Cl`, with below 4.70. The same measure, in the same setting: then `CCCCCOC(=O)[C@@H]1Cc2cc(O)c(O)cc2[C@H](Cc2ccc(O)c(O)c2)N1C(=O)c1ccccc1Cl`, with below 4.70; and `COC(=O)[C@@H]1Cc2cc(O)c(O)cc2[C@H](Cc2ccc(O)c(O)c2)N1C(=O)c1ccc(F)cc1`, with 5.52; and `CCOC(=O)[C@@H]1Cc2cc(O)c(O)cc2[C@H](Cc2ccc(O)c(O)c2)N1C(=O)c1ccccc1Cl`, with 5.49. Turning to `COC(=O)[C@@H]1Cc2cc(O)c(O)cc2[C@H](Cc2ccc(O)c(O)c2)N1C(=O)c1ccc(C(F)(F)F)cc1`, the pEC50 was 5.03. As to `CCCCCCC(=O)N1[C@H](C(=O)OC)Cc2cc(O)c(O)cc2[C@@H]1Cc1ccc(O)c(O)c1`, the pEC50 was 4.78. Against the preceding compound, the pEC50 is 0.25 log units lower.

`COC(=O)[C@@H]1Cc2cc(O)c(O)cc2[C@H](Cc2ccc(O)c(O)c2)N1C(=O)c1ccc(Cl)cc1Cl` showed a pEC50 of 5.32. Compared with the last compound, the pEC50 is 0.54 log units higher. On to `COC(=O)[C@@H]1Cc2cc(O)c(O)cc2[C@H](Cc2ccc(O)c(O)c2)N1C(=O)c1ccccc1Br`, for which the negative logarithm of the EC50 (pEC50) is 5.47. The compound `COC(=O)[C@@H]1Cc2cc(O)c(O)cc2[C@H](Cc2ccc(O)c(O)c2)N1C(=O)c1cccnc1` had a pEC50 below 4.70.

Compound `CN(C)C(=O)[C@@H]1Cc2cc(O)c(O)cc2[C@H](Cc2ccc(O)c(O)c2)N1C(=O)c1ccccc1Cl` showed a pEC50 of 4.90. `COC(=O)[C@@H]1Cc2cc(O)c(O)cc2[C@H](Cc2ccc(O)c(O)c2)N1C(=O)c1cccc(Br)c1` showed a pEC50 of 5.42. `COC(=O)[C@@H]1Cc2cc(O)c(O)cc2[C@H](Cc2ccc(O)c(O)c2)N1C(=O)c1ccccc1F` showed a negative logarithm of the EC50 (pEC50) of 5.56. The same measure, in the same setting: then `CN1CCc2cc(O)c(O)cc2C1Cc1ccc(O)c(O)c1` (racemic), with 4.33.

Turning to `C=CC(=O)N1[C@H](C(=O)OC)Cc2cc(O)c(O)cc2[C@@H]1Cc1ccc(O)c(O)c1`, the negative-log EC50 (pEC50) was 5.27. With `O=C(Nc1ccncc1)[C@@H]1Cc2cc(O)c(O)cc2[C@H](Cc2ccc(O)c(O)c2)N1C(=O)c1ccccc1Cl`, the negative logarithm of the EC50 (pEC50) is 5.69. The compound `CNC(=O)[C@@H]1Cc2cc(O)c(O)cc2[C@H](Cc2ccc(O)c(O)c2)N1C(=O)c1ccccc1Cl` showed a negative-log EC50 (pEC50) below 4.70. The compound `COC(=O)[C@@H]1Cc2cc(O)c(O)cc2[C@H](Cc2ccc(O)c(O)c2)N1C(=O)c1cccc(Cl)c1` gave a pEC50 of 5.62.

In the case of `COC(=O)[C@@H]1Cc2cc(O)c(O)cc2[C@H](Cc2ccc(O)c(O)c2)N1C(=O)CNC(C)=O`, the pEC50 is below 4.70.

`COC(=O)CNC(=O)[C@@H]1Cc2cc(O)c(O)cc2[C@H](Cc2ccc(O)c(O)c2)N1C(=O)c1ccccc1Cl` gave a negative logarithm of the EC50 (pEC50) of 5.41.

`CCCCCCNC(=O)[C@@H]1Cc2cc(O)c(O)cc2[C@H](Cc2ccc(O)c(O)c2)N1C(=O)c1ccccc1Cl` gave a pEC50 below 4.70. Compound `COC(=O)[C@@H]1Cc2cc(O)c(O)cc2[C@H](Cc2ccc(O)c(O)c2)N1C(=O)c1ccncc1` gave a pEC50 below 4.70. As for `COC(=O)[C@@H]1Cc2cc(O)c(O)cc2[C@H](Cc2ccc(O)c(O)c2)N1C(=O)c1ccc(Cl)cc1`, the pEC50 was 5.60. Compound `O=C1c2c(O)c(=O)ccn2N([C@@H]2c3ccccc3SCc3c2ccc(F)c3F)[C@@H]2COCCN12` [BALOXAVIR] showed a pEC50 of 8.07. Compound `O=C(O)[C@@H]1Cc2cc(O)c(O)cc2[C@H](Cc2ccc(O)c(O)c2)N1C(=O)c1ccccc1Cl` had a pEC50 of 4.71. For the compound `O=C(NC1CCCCC1)[C@@H]1Cc2cc(O)c(O)cc2[C@H](Cc2ccc(O)c(O)c2)N1C(=O)c1ccccc1Cl`, the pEC50 is below 4.70.

Consider `CCCN(CCC)C(=O)[C@@H]1Cc2cc(O)c(O)cc2[C@H](Cc2ccc(O)c(O)c2)N1C(=O)c1ccccc1Cl`, for which the pEC50 was below 4.70. The same measure, in the same setting: then `O=C(Nc1ccccc1)[C@@H]1Cc2cc(O)c(O)cc2[C@H](Cc2ccc(O)c(O)c2)N1C(=O)c1ccccc1Cl`, with 4.81. Same read-out and setting: then `COC(=O)[C@@H]1Cc2cc(O)c(O)cc2[C@H](Cc2ccc(O)c(O)c2)N1C(=O)c1ccccc1Cl`, with 5.74; and `O=C(OCCO)[C@@H]1Cc2cc(O)c(O)cc2[C@H](Cc2ccc(O)c(O)c2)N1C(=O)c1ccccc1Cl`, with below 4.70. Same read-out and setting: then `CCCNC(=O)[C@@H]1Cc2cc(O)c(O)cc2[C@H](Cc2ccc(O)c(O)c2)N1C(=O)c1ccccc1Cl`, with below 4.70; and `O=C(O[C@@H]1Cc2c(O)cc(O)cc2O[C@@H]1c1cc(O)c(O)c(O)c1)c1cc(O)c(O)c(O)c1` [EPIGALOCATECHIN GALLATE], with 4.52.

The compound `COC(=O)[C@@H]1Cc2cc(O)c(O)cc2[C@H](Cc2ccc(O)c(O)c2)N1C(=O)c1ccccc1[N+](=O)[O-]` had a pEC50 of 4.96. Compared with the last compound, the pEC50 is 0.44 log units higher. The compound `COC(=O)[C@@H]1Cc2cc(O)c(O)cc2[C@H](Cc2ccc(O)c(O)c2)N1C(=O)c1cccc(C(F)(F)F)c1` had a pEC50 of 5.07. Regarding `COC(=O)[C@@H]1Cc2cc(O)c(O)cc2[C@H](Cc2ccc(O)c(O)c2)N1C(=O)c1c(Cl)cccc1Cl`, the pEC50 is 5.28. With `COC(=O)[C@@H]1Cc2cc(O)c(O)cc2[C@H](Cc2ccc(O)c(O)c2)N1C(=O)C1CCCCC1`, the pEC50 is 4.72. This pEC50 is 0.56 log units lower than that of the compound before. Same read-out and setting: then `COC(=O)[C@@H]1Cc2cc(O)c(O)cc2[C@H](Cc2ccc(O)c(O)c2)N1C(=O)c1ccccc1C(F)(F)F`, with 5.04; and `COC(=O)[C@@H]1Cc2cc(O)c(O)cc2[C@H](Cc2ccc(O)c(O)c2)N1C(=O)c1cccc(F)c1`, with 5.54; and `COC(=O)[C@@H]1Cc2cc(O)c(O)cc2[C@H](Cc2ccc(O)c(O)c2)N1C(=O)c1ccc(O)cc1`, with below 4.70. The same measure, in the same setting: then `O=C(Oc1ccccc1)[C@@H]1Cc2cc(O)c(O)cc2[C@H](Cc2ccc(O)c(O)c2)N1C(=O)c1ccccc1Cl`, with 5.87; and `CCNC(=O)[C@@H]1Cc2cc(O)c(O)cc2[C@H](Cc2ccc(O)c(O)c2)N1C(=O)c1ccccc1Cl`, with below 4.70.

In the case of `COC(=O)[C@@H]1Cc2cc(O)c(O)cc2[C@H](Cc2ccc(O)c(O)c2)N1C(=O)c1cccc(O)c1`, the negative-log EC50 (pEC50) is below 4.70.

The test system of another assay is Influenza A virus. The note with it: H1N1(A/PR/8/34), MDCK, 48 h.
Take `CCC(CC)[C@H](NC(C)=O)[C@@H]1[C@H](O)[C@@H](C(=O)O)C[C@H]1NC(=N)N` [PERAMIVIR ANHYDROUS]: the negative logarithm of the EC50 (pEC50) was 6.01. On to `CCCOC(=O)[C@@H]1Cc2cc(O)c(O)cc2[C@H](Cc2ccc(O)c(O)c2)N1C(=O)c1ccccc1Cl`, for which the pEC50 is 5.89. On the same count and under the same terms, then `O=C(Nc1ccncc1)[C@@H]1Cc2cc(O)c(O)cc2[C@H](Cc2ccc(O)c(O)c2)N1C(=O)c1ccccc1Cl`, with 5.59; and `COC(=O)[C@@H]1Cc2cc(O)c(O)cc2[C@H](Cc2ccc(O)c(O)c2)N1C(=O)c1ccccc1Cl`, with 5.70.

For a further assay, the system named is Influenza A virus. The class given is functional, organism-based. Particulars: H1N1/A/WSN/1933, MDCK, dose 5-20 µM, time 24.0 hrs.
As for `CCCOC(=O)[C@@H]1Cc2cc(O)c(O)cc2[C@H](Cc2ccc(O)c(O)c2)N1C(=O)c1ccccc1Cl`, the result was Active.

For the next assay, the system named is Influenza A virus. The class given is functional, organism-based. The note with it: H1N1/A/WSN/1933, MDCK, dose 5-20 µM, time 24.0 hrs. The source holds these as a separate data set.
In the case of `CCCOC(=O)[C@@H]1Cc2cc(O)c(O)cc2[C@H](Cc2ccc(O)c(O)c2)N1C(=O)c1ccccc1Cl`, the outcome was Active.

The subject of another assay is Influenza A virus. It is filed as functional, organism-based. Particulars: H1N1/A/WSN/1933, MDCK, dose 5-20 µM, time 24.0 hrs. This is another data set of the same source.
For `CCCOC(=O)[C@@H]1Cc2cc(O)c(O)cc2[C@H](Cc2ccc(O)c(O)c2)N1C(=O)c1ccccc1Cl`, the Activity result was “Dose-Dependent Effect”.

The next assay relates to Influenza A virus. The class given is functional, organism-based. The note with it: H1N1/A/WSN/1933, A549, dose 10.0 µM, time 48.0 hrs.
`CCCOC(=O)[C@@H]1Cc2cc(O)c(O)cc2[C@H](Cc2ccc(O)c(O)c2)N1C(=O)c1ccccc1Cl`: the outcome was Active.

The subject of a further assay is Influenza A virus. It is filed as functional, organism-based. The note with it: H1N1/A/PR/8/34, MDCK, dose 2.5-10 µM, time 72.0 hrs.
`CCCOC(=O)[C@@H]1Cc2cc(O)c(O)cc2[C@H](Cc2ccc(O)c(O)c2)N1C(=O)c1ccccc1Cl`: the Activity result is “Dose-Dependent Effect”.

(Values after ChEMBL document CHEMBL5316264, “Identification of N- and C-3-Modified Laudanosoline Derivatives as Novel Influenza PAN Endonuclease Inhibitors” (J Med Chem, 2023).)
